In US10071110B2, “Phosphonate compounds” (priority 1999, dated 2018):

Test system: Human cytomegalovirus (HCMV)
Assay: HCMV antiviral assay, HCMV DNA quantified by DNA hybridization in MRC-5 cells
Format: cell-based
Conditions: Table 1 data

## CCCCCCCCCCCCCCCCOCCCOP1(=O)COC(Cn2ccc(N)nc2=O)CO1 (stereo not shown) [HDP-cCDV, 1-O-hexadecylpropanediol-3-cyclic CDV]
  times more active than CDV or cyclic CDV: > 900 times
